Out of some 390,000 compounds screened, about 4,000 (1%) were called active. This list was built around the results that the source calls inconclusive (neither active nor inactive); the mix of calls is not that of the screen. Calls follow the shape of the dose curve; as a rule, active = well fitted inhibition curve with a large enough effect; inconclusive = small, poorly fitted or top-dose-only effect; inactive = no such curve, though single readings can be large or run the other way. Potencies beside an inconclusive call are fits to weak or partial responses and may not hold up.
target: Thioredoxin reductase 1, cytoplasmic (Rattus norvegicus) (UniProt O89049); test: qHTS Assay for Inhibitors of Mammalian Selenoprotein Thioredoxin Reductase 1 (TrxR1): qHTS; conditions: recombinant rTrxR1, NADPH fluorescence consumption, selenite substrate; series mostly up to 114 µM; activity change, negative = inhibition: at the top concentration; also: nearly all actives have a fitted effect of over 65% in size
Chain of UniProt O89049 (O89049 whole entry, looked up): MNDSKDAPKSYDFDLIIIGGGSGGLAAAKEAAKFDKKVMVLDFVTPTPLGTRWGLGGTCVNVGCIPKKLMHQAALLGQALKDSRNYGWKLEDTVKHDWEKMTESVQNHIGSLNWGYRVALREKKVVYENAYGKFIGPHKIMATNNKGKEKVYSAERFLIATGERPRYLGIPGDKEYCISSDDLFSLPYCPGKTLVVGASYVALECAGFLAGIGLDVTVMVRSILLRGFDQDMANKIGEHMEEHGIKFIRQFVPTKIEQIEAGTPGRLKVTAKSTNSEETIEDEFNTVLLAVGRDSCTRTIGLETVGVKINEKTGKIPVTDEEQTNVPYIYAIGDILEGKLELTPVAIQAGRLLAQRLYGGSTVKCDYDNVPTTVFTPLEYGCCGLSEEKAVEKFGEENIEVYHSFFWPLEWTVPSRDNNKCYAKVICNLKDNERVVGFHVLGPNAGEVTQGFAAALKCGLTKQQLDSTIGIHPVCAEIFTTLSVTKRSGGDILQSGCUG
In short: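 Rat TrxR1 (90 nM in the dispensed reagent) was pre-reduced with 400 uM NADPH for 5 min at room temperature, then incubated with compound for 15 min. After 400 uM selenite was added, NADPH fluorescence (Ex 340/Em 450 nm) was followed for 8 min.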
% is scaled to controls: 0 for no effect and ±100 for the full control effect; potency is read from the fitted curve at half-maximal effect; tags tell the direction and shape of the fitted curve.

Structure (SMILES)	activity change, negative = inhibition	Potency
CC1CCN(S(=O)(=O)c2ccc(NC(=O)Cc3ccc(S(=O)(=O)N4CCOCC4)s3)cc2)CC1	inactive: 10.1%	
COC(=O)C1C(c2ccc(OC)c(OC)c2)NC(c2ccc(OC)c(OC)c2)C(C(=O)OC)S1(=O)=O (stereo not drawn)		inconclusive: 39.8 µM [inhibitor, partial curve, poor fit]
N[C@@H](CS(=O)O)C(=O)O		inconclusive: 18.9 µM [inhibitor, partial curve, poor fit]
S=C(NCc1ccccc1)Nc1nccs1		inconclusive: 39.8 µM [inhibitor, partial curve]
COc1ccc(OCC2CCNCC2)cc1		inconclusive: 89.1 µM [inhibitor, single point]
O=C(Cn1c(=O)oc2ccccc21)Nc1n[nH]c(=S)s1		inconclusive: 39.8 µM [inhibitor, single point]
CCOC(=O)c1ccoc1CSCc1ccc(C(=O)OC)o1		inconclusive: 39.8 µM [inhibitor, single point]
COc1ccc(/C=N/NC(=O)COc2cc(C)cc(C)c2)cc1COC(C)=O		inconclusive: 79.4 µM [inhibitor, partial curve, poor fit]
COc1ccccc1C(=O)NC(=S)NC12CC3CC(CC(C3)C1)C2		inconclusive: 79.4 µM [inhibitor, single point]
O=C(NC1CC1)c1ccc(CSCc2cccc(F)c2)o1		inconclusive: 56.2 µM [inhibitor, partial curve, poor fit]
O=C(N/N=C/c1ccccc1)C1CCCN1C(=O)c1cc([N+](=O)[O-])cc([N+](=O)[O-])c1 (stereo not drawn)		inconclusive: 79.4 µM [inhibitor, single point]
CCc1cc(C(c2ccc(F)cc2)N2CCOCC2)c(NC(=O)c2ccccc2)s1 (stereo not drawn)		inconclusive: 20 µM [inhibitor, partial curve]
O=C(CC1C(=O)NCCN1Cc1ccccc1C(F)(F)F)NC1CCCC1 (stereo not drawn)		inconclusive: 79.4 µM [inhibitor, single point]
Cn1cnc([N+](=O)[O-])c1Sc1ccc(Br)cc1		inconclusive: 35.5 µM [inhibitor, partial curve, poor fit]
CN1CCN(C(=S)c2ccc(Br)cc2)CC1	inactive: 3.3% [at 57.1 µM]	
COc1ccc(NC(=O)n2nc(OC(=O)c3cccs3)cc2N)cc1		inconclusive: 44.7 µM [inhibitor, single point]
CCOc1ccc(OCCC(=O)OCC(=O)N2CCN(S(=O)(=O)c3ccc(Cl)cc3)CC2)cc1		inconclusive: 44.7 µM [inhibitor, partial curve]
C=C1C(=O)O[C@@H]2C[C@@H](C)[C@@H]3C=CC(=O)[C@@]3(C)[C@@H](OC(C)=O)[C@H]12		inconclusive: 56.2 µM [inhibitor, partial curve, poor fit]
COc1ccc(C2C(=O)N(C3CCCCCC3)CC(=O)N2CCc2ccc(Cl)cc2)cc1OC (stereo not drawn)	inactive: 23.7% [at 57.1 µM]	
O=C(O)c1cccc(NC(=S)NC(NC(=O)c2cccc([N+](=O)[O-])c2)C(Cl)(Cl)Cl)c1 (stereo not drawn)	inactive: 10.5%	
CCOC(=O)c1ccc(NC(=O)CSc2nnc(CCc3ccc(C)o3)n2-c2ccccc2)cc1		inconclusive: 70.8 µM [inhibitor, single point]
CC(C)c1nc(=S)c2ccccc2[nH]1		inconclusive: 89.1 µM [inhibitor, single point]
COC(=O)C1=C(C)N(CCc2ccc(OC)c(OC)c2)C(=O)/C1=C\c1ccc(O)cc1		inconclusive: 44.7 µM [inhibitor, partial curve, poor fit]

Structure (SMILES)	activity change, negative = inhibition	Potency
COc1ccc(-c2c(C)c3ccc(O)cc3oc2=O)cc1		inconclusive: 70.8 µM [inhibitor, single point]
O=C(O)Cc1sc(Nc2ccc(Cl)cc2)nc1-c1cccs1	inactive: -4.7% [at 57.1 µM]	
Nn1c(SCC(=O)Nc2ccc(F)c(F)c2)nnc1C1CCCCC1	inactive: 4.86% [at 57.1 µM]	
COc1cccc(C2C(C(=O)c3ccc(C)o3)=C(O)C(=O)N2c2cc(C)on2)c1 (stereo not drawn)		inconclusive: 50.1 µM [inhibitor, partial curve, poor fit]
O=C(O)C1CC=CCC1C(=O)N1CCN(c2nc(-c3ccccc3)c3ccccc3n2)CC1 (stereo not drawn)		inconclusive: 70.8 µM [inhibitor, partial curve]
O=C(Cn1cc(COc2c(F)c(F)cc(F)c2F)nn1)c1ccc(O)cc1		active: 50.1 µM
c1ccc(C2c3[nH]c4ccccc4c3CCN2Cc2cccn2-c2cccnc2)nc1 (stereo not drawn)		active: 50.1 µM
O=C(NCCCc1ccccc1)c1cccs1	inactive: 8.14% [at 2.29 µM]	
Cc1nnc(N2C(=O)c3oc4ccccc4c(=O)c3C2c2cccc(OCCC(C)C)c2)s1 (stereo not drawn)		inconclusive: 100 µM [inhibitor, single point]
COc1ccc(C(=O)/C=C/Sc2nc3ccccc3o2)cc1		active: 1 µM
Cc1ccc(-n2cccc2/C=C2/C(=N)N3C(=NC2=O)SN=C3S(C)(=O)=O)cc1Cl		inconclusive: 70.8 µM [inhibitor, partial curve]
COc1ccc(C(=O)/C=C/c2cn(CC(O)CN3CCCCCC3)c3ccccc23)cc1OC (stereo not drawn)		active: 39.8 µM
COCCCNC(=O)c1c(NC(=O)Cc2coc3cc(C)ccc23)sc2c1CCCC2	inactive: 25.9%	
CCN(CC)c1ccc(/C=N/NC(=O)c2ccc3nc[nH]c3c2)cc1		inconclusive: 17.8 µM [inhibitor, partial curve, poor fit]
O=C1C(Cl)=C(NC2CCCCC2)C(=O)N1c1ccc(Cl)cc1	inactive: 7.55%	
O=[N+]([O-])c1cc(Cl)cc(/C=N/n2cnnc2)c1O		inconclusive: 17.8 µM [inhibitor, partial curve]
CCOc1ccc(CCNS(=O)(=O)c2ccc3c(c2)NC(=O)CO3)cc1OCC		inconclusive: 89.1 µM [inhibitor, single point]
COc1cc(C(=O)Nc2nc(OC)c(-c3ccccc3)c(OC)n2)cc(OC)c1OC		inconclusive: 17.8 µM [inhibitor, partial curve, poor fit]
CCOC(=O)Cc1csc(NC(=S)NC(=O)c2cc(OC)c(OC)c(OC)c2)n1		inconclusive: 70.8 µM [inhibitor, partial curve]
CCOc1cccc2c1OC1(CCCCC1)N1N=C(c3cccnc3)CC21 (stereo not drawn)		inconclusive: 79.4 µM [inhibitor, partial curve]
Cc1cc(=O)[nH]c2nnc(SCC(N)=O)n12	inactive: 3.3% [at 57.1 µM]	
CC1=NN(c2ccccc2)C(=O)/C1=C/c1cccc(C)c1		inconclusive: 56.2 µM [inhibitor, partial curve]
Cc1ccc(C)c(-c2nnc(NC(=O)c3ccc([N+](=O)[O-])o3)o2)c1		inconclusive: 50.1 µM [inhibitor, partial curve]

Structure (SMILES)	activity change, negative = inhibition	Potency
Cc1nn(C(=O)c2ccc(Cl)cc2)c(C)c1Sc1ccc(Cl)cc1	inactive: 25.4%	
CCOC(=O)c1c(NC(=O)c2ccc(S(=O)(=O)N3CCOCC3)cc2)sc2c1CC(C)(C)NC2(C)C		inconclusive: 89.1 µM [inhibitor, single point]
CCOc1ccccc1C1C2C(=O)N(c3ccccc3)C(=O)C2ON1c1ccccc1 (stereo not drawn)		inconclusive: 11.2 µM [inhibitor, partial curve]
CS(=O)(=O)Nc1nc2n(n1)C(c1ccccc1)C=C(c1ccc(Br)cc1)N2 (stereo not drawn)		inconclusive: 20 µM [inhibitor, partial curve]
Cc1nc2c3cc(F)ccc3n(Cc3ccccc3)c2s1	inactive: 16.7%	
CCOc1ccc2nc(Cl)c(C3CC(c4ccco4)=NN3S(C)(=O)=O)cc2c1 (stereo not drawn)		inconclusive: 25.1 µM [inhibitor, full curve]
c1ccc(-c2ccccc2-c2nc(-c3ccncc3)no2)cc1	inactive: -0.068%	
O=c1c2sccc2n(Cc2cc(=O)n3ccccc3n2)c(=O)n1-c1ccccc1		inconclusive: 89.1 µM [inhibitor, partial curve, poor fit]
CCc1ccc(C2=CC(c3cc(Br)ccc3F)n3ncnc3N2)cc1 (stereo not drawn)		inconclusive: 10 µM [inhibitor, full curve]
Cc1ccc([C@@H]2[C@@H]3C(=O)N(C)C(=O)[C@@H]3[C@]3(C)C(=O)N(CCO)CC(=O)N23)o1		inconclusive: 70.8 µM [inhibitor, partial curve]
O=C(N/C(=C\c1ccco1)C(=O)N1CCCC1CO)c1ccccc1 (stereo not drawn)		active: 39.8 µM
CCOc1ccc(NC(=O)C2CCCN(c3c(CC)c(C)nc4ncnn34)C2)cc1 (stereo not drawn)	inactive: 9.79% [at 57.1 µM]	
CCOC(=O)/C(=C\C=C\c1ccccc1)NC(=O)c1ccccc1		inconclusive: 79.4 µM [inhibitor, partial curve]
CC(=O)c1ccc(NC(=S)NC(=O)/C=C/c2ccco2)cc1		inconclusive: 50.1 µM [inhibitor, partial curve]
COc1cccc(CN2CCNC(=O)C2CC(=O)N(C)CCC2CCOCC2)c1OC (stereo not drawn)		inconclusive: 70.8 µM [inhibitor, partial curve]
S=C(NCCCN1CCOCC1)N1CCN(c2nc(-c3ccccc3)cs2)CC1	inactive: -3.93%	
COc1ccc(Br)cc1C1C2C=CCC(C)C2C(=O)N1Cc1ccccc1 (stereo not drawn)		active: 22.4 µM
O=C(/C=C/c1ccc(Cl)c(Cl)c1)NC1=NCCS1	inactive: 20.6% [at 57.1 µM]	
COc1ccc(CNC(=O)CCc2nc3cc(S(=O)(=O)N(C)C)ccc3n2C)cc1OC	inactive: -2.41%	
Cc1cccc(CNC(=O)C2CCCN(S(=O)(=O)c3cn(C)cn3)C2)c1 (stereo not drawn)	inactive: 6.03% [at 57.1 µM]	
Cn1nnnc1SCCCNCc1ccc(-c2ccc(Br)cc2)o1		inconclusive: 89.1 µM [inhibitor, single point]
Cc1sc2nc[nH]c(=S)c2c1-c1ccccc1		inconclusive: 2.24 µM [inhibitor, full curve]

Reference: PubChem BioAssay AID588453 (National Center for Advancing Translational Sciences (NCATS), 2011)
